About 64,000 (15%) of roughly 420,000 compounds were called active. Inconclusive means that the source gave no clear call. Such entries were picked first, then a sample of the others. Calls come from the whole dose curve; as a rule, active = well fitted inhibition curve with a large enough effect; inconclusive = small, poorly fitted or top-dose-only effect; inactive = flat fitted curve, though single readings scatter. Potencies of inconclusive entries are left out as doubtful fits.
Test: qHTS for Inhibitors of human tyrosyl-DNA phosphodiesterase 1 (TDP1): qHTS in cells in absence of CPT; note: nearly all actives have a fitted effect of over 55% in size
Conditions: DT40 Tdp1-/- hTDP1 cells, no CPT, ATP luminescence, 48 h; activity change, negative = growth inhibition: at 46.2 µM (top of the series) unless noted
In short: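 Cells were dispensed at 400 per well, compounds added by pin tool, plates incubated ≥48 hr at 37 °C, then CellTiter-Glo added for 30 min at room temperature before luminescence reading. Line: DT40 Tdp1-/- complemented with hTDP1; camptothecin omitted.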
% is set by controls: 0 for no effect and ±100 for the full control effect; potency is the fitted concentration of half-maximal effect; tags give direction and shape of the fitted curve.

| SMILES | Potency | activity change, negative = growth inhibition |
| --- | --- | --- |
| CC(C)c1ccc(/C=C(\NC(=O)c2ccccc2)C(=O)NCCCn2ccnc2)cc1 | inconclusive [inhibitor, partial curve] | – |
| COc1ccc(CCNC(=O)c2ccccc2NS(=O)(=O)c2c(F)cccc2F)cc1 | inactive | – |
| Cc1ccc(CNC(=O)CCCCCn2c(=O)c3sccc3n(CC(=O)N3CCCCC3C)c2=O)cc1 (stereo unspecified) | inconclusive [inhibitor, single point] | – |
| COc1cccc(NC(=O)CCC2CCN(C(=O)c3sccc3C)CC2)c1 | active: 20.6 µM | – |
| CCCn1c(CCNc2nc(-c3cccc(Br)c3)cs2)nc2ccccc21 | inconclusive [inhibitor, partial curve] | – |
| O=C(CNCCc1ccc(Cl)cc1Cl)NCc1ccco1 | inactive | – |
| CCCCC12CN3CC(C)(CN(C1)C3c1ccc(OCc3ccccc3)cc1)C2=O (stereo unspecified) | inconclusive [inhibitor, single point] | – |
| CCOc1ccc(C(=O)CN2CCN(S(=O)(=O)c3ccc(Br)cc3)CC2)cc1 | inactive | – |
| CC(C)c1cc(NC(=O)CSc2nnc(-c3ccccc3F)n2C)on1 | inactive | – |
| CCN(CC)CCC(=O)Nc1cccc2c1C(=O)c1ccccc1C2=O | active: 10.3 µM | – |
| COc1ccc(N2CC(O)=C(c3nc(-c4ccccc4)cs3)C2=N)cc1 | active: 20.6 µM | – |
| O=c1c2ccccc2nc(SCc2ccc([N+](=O)[O-])cc2)n1CCCO | active: 6.51 µM | – |
| O=[N+]([O-])c1cccc(-c2noc3c2-c2nc(Cc4cccc5ccccc45)sc2CC3)c1 | inactive | – |
| Cn1c(=O)c2cc(NC(=O)NCCc3ccccc3)ccc2n1Cc1ccc(F)cc1 | inconclusive [inhibitor, single point] | – |
| CCNC(=S)N/N=C(\C)c1cccc(C(F)(F)F)c1 | inconclusive [inhibitor, single point] | – |
| COc1ccc(Cn2c(=O)[nH]c3cc(C(=O)NCCCN4CCCCCC4)ccc3c2=O)cc1 | inconclusive [inhibitor, single point] | – |
| Cc1cccc(N2CN(Cc3ccco3)CNC2=S)c1C | inactive | – |
| CCOC(=O)N1Cc2cc3ccccc3nc2C1 | inconclusive [inhibitor, single point] | – |
| FC(F)(F)c1cc(-c2ccco2)nc(NCc2ccc(Cl)cc2)n1 | inconclusive [inhibitor, single point] | – |
| Nc1nc2c(nc(Sc3ccc(Cl)cc3)n2C2OC(CO)C(O)C2O)c(=O)[nH]1 (stereo unspecified) | inconclusive [inhibitor, single point] | – |
| Cc1cc(C)nc(SC2CC(=O)N(c3ccc(Br)cc3)C2=O)n1 (stereo unspecified) | inconclusive [inhibitor, single point] | – |
| Cc1cccc(N2CC(C(=O)OCC(=O)Nc3sccc3C(N)=O)CC2=O)c1C (stereo unspecified) | inactive | – |
| O=c1[nH][nH]c(-c2ccccc2O)c1C(C[N+](=O)[O-])c1ccc(Cl)cc1Cl (stereo unspecified) | inconclusive [inhibitor, single point] | – |
| Cc1ccccc1NC(=O)c1sc2nc(-c3cc4ccccc4oc3=O)[nH]c(=O)c2c1C | inconclusive [inhibitor, partial curve] | – |

| SMILES | Potency | activity change, negative = growth inhibition |
| --- | --- | --- |
| CCN(C(=O)Cn1c(C(=O)OC)cc2sccc21)c1cccc(C)c1 | inconclusive [inhibitor, single point] | – |
| COC(=O)c1ccc(CN2CCN(C3CCCC3)C(CCO)C2)cc1 (stereo unspecified) | inactive | – |
| N#C/C(=C\c1c[nH]c2ccccc12)C(=O)NCC1CCCO1 (stereo unspecified) | inconclusive [inhibitor, single point] | – |
| CCN(CC)C(=O)C(=O)c1cn(CCOc2ccccc2)c2ccccc12 | inactive | – |
| CCc1ccc2[nH]c(=O)c(CN(CCN3CCOCC3)C(=O)Nc3ccccc3F)cc2c1 | inconclusive [inhibitor, single point] | – |
| Cc1ccccc1NC(=O)c1c(C)oc2ccc(O)c(CN3CCCCCC3)c12 | active: 20.6 µM | – |
| Cc1ccc(C(O)Cn2nc(C)cc2C)cc1 (stereo unspecified) | inconclusive [inhibitor, single point] | – |
| CN1c2ccccc2C(O)=C(C(=O)Nc2ccccc2)S1(=O)=O | inconclusive [inhibitor, partial curve] | – |
| COc1ccc(NC(=O)COc2ccc(N(C)S(=O)(=O)c3ccc(Cl)cc3)cc2)cc1 | inconclusive [inhibitor, single point] | – |
| FC(F)(F)c1cccc(Nc2nc3nonc3nc2Nc2ccc(Cl)cc2)c1 | active: 0.58 µM | – |
| CCOCCCNC(=O)CSCc1nc(-c2ccc(SC)cc2)oc1C | inconclusive [inhibitor, partial curve, poor fit] | – |
| CCCc1cc(=O)oc2c(C)c(OCC(=O)N3CCC[C@@H]3C(=O)O)ccc12 | inactive | – |
| CCc1nc2c(OCc3ccccc3C)cccn2c1N(C)C(=O)C(C)C | active: 16.4 µM | – |
| Cc1nc(-c2ccc(S(=O)(=O)N3CCN(c4ccccc4F)CC3)cc2)co1 | inconclusive [inhibitor, single point] | – |
| Cc1cc(C)c[n+](CC(=O)c2ccc(-c3ccccc3)cc2)c1 | inconclusive [inhibitor, partial curve, poor fit] | – |
| Cn1c(=O)c2cc(NC(=O)OCCF)ccc2n1Cc1cccc(C(F)(F)F)c1 | active: 23.1 µM | – |
| Cc1ccc([N+](=O)[O-])cc1NC(=O)c1ccoc1C | inactive | – |
| CCC(=O)C1CCCN(C(=O)CCc2nnc(C3(c4ccc(Cl)cc4)CCC3)o2)C1 (stereo unspecified) | – | inconclusive: -35.2% [inhibitor] |
| CC1CCN(C(=O)CSCC(=O)Nc2nc(-c3cccs3)cs2)CC1 | inconclusive [inhibitor, partial curve, poor fit] | – |
| O=C(Nc1c(C(=O)N2CCOCC2)cnn1-c1ccccc1)c1ccc([N+](=O)[O-])cc1 | inconclusive [inhibitor, single point] | – |
| COc1ccc(Cl)cc1C(=O)Nc1cccnc1 | inactive | – |
| Cc1nc(NC(=O)CC(C)C)sc1-c1csc(Nc2ccc(Cl)cc2Cl)n1 | active: 18.4 µM | – |
| COc1ccc(/C=C2\N=C(C)N(c3ccc4ccccc4c3)C2=O)cc1OC | active: 5.8 µM | – |
| COc1ccc(CN(C)CC(=O)c2c(N)n(Cc3ccccc3)c(=O)n(C)c2=O)c(OC)c1 | inconclusive [inhibitor, single point] | – |

| SMILES | Potency | activity change, negative = growth inhibition |
| --- | --- | --- |
| CCOC(=O)c1ccccc1OCc1cc(C2Nc3ccccc3C(=O)N2c2cccc3ccccc23)ccc1OC (stereo unspecified) | inconclusive [inhibitor, single point] | – |
| CCCn1cc(S(=O)(=O)c2ccc(C)c(C)c2)c(=O)c2cc(F)c(N3CCCCC3)cc21 | inconclusive [inhibitor, partial curve] | – |
| Cc1cccc(C(=O)n2c(=S)nc3cc(C)ccn32)c1 | inconclusive [inhibitor, single point] | – |
| CCS(=O)(=O)N1CCc2nc(-c3ccccc3)sc2C1 | inconclusive [inhibitor, single point] | – |
| COC(=O)c1ccccc1NC(=O)Cn1cnc2cc(C)c(C)cc21 | active: 23.1 µM | – |
| CC(C)n1c(CNC(=O)c2ccccc2F)nnc1SCC(=O)c1ccc(F)cc1 | inactive | – |
| O=C(NC1CCCCC1)c1ccc(CSc2nc3cccnc3n2Cc2ccccc2)cc1 | inconclusive [inhibitor, single point] | – |
| CC1=C(c2ccc(C(C)C)cc2)S(=O)(=O)N=C1N1CCC(C(=O)NCc2ccc(C)o2)CC1 | inconclusive [inhibitor, full curve, poor fit] | – |
| Nc1nonc1C(=O)NCCNc1ccc([N+](=O)[O-])cn1 | inactive | – |
| CCn1ccnc1CNC(=O)c1cc(COc2ccc(F)cc2F)on1 | inactive | – |
| COc1ccccc1NC(=O)c1cc(Cl)ccc1NC(=O)c1ccco1 | inactive | – |
| Cc1cccc2nc(CSc3nc4ccc([N+](=O)[O-])cc4[nH]3)c(Br)n12 | inconclusive [inhibitor, single point] | – |
| CN(CC(=O)Nc1c(Cl)cccc1Cl)C(=O)CCC1CCCC1 | inactive | – |
| Cc1ccc(S(=O)(=O)N2C(=O)CCC2C(=O)O/N=C(\N)c2cccc([N+](=O)[O-])c2)cc1 (stereo unspecified) | inactive | – |
| COCCN(C(=O)COC(=O)CCOc1ccccc1)c1c(N)n(Cc2ccccc2)c(=O)[nH]c1=O | inactive | – |
| COc1cc(C2Nc3cc(Cl)c(S(N)(=O)=O)cc3S(=O)(=O)N2)ccc1OCc1ccccc1 (stereo unspecified) | inconclusive [inhibitor, single point] | – |
| COc1ccccc1-n1c(-c2cc(-c3ccc(F)cc3)n[nH]2)n[nH]c1=S | inconclusive [inhibitor, single point] | – |
| CN1CCN(CCCNC(=O)c2ccc(/C=C3\Sc4ccccc4N(Cc4ccccc4F)C3=O)cc2)CC1 | inconclusive [inhibitor, single point] | – |
| Cc1ccc(CN(Cc2cccn2-c2nnc(N3CCCC3=O)s2)C(=O)Nc2ccccc2Cl)cc1 | inconclusive [inhibitor, single point] | – |
| O=C(O)c1ccccc1C=NN1CCCCCC1 | inactive | – |
| Cc1cc(C)c2c(NC(=O)c3ccccc3Cl)c(C(=O)NCc3ccc(Cl)cc3)sc2n1 | inconclusive [inhibitor, single point] | – |
| COc1ccc(CNC(=O)c2coc(=O)c3ccccc23)c(OC)c1 | inconclusive [inhibitor, single point] | – |
| CCOC(=O)c1nnn(-c2nonc2-n2cccc2)c1CN1CCOCC1 | inactive | – |

Reference: PubChem BioAssay AID686978 (National Center for Advancing Translational Sciences (NCATS), 2013)
